Some of the results follow.
B1: PhoQ; a variant is named by its letters at X, in order, P23837 (parent)
chain: MKKLLRLFFPLSLRVRFLLATAAVVLVLSLAYGMVALIGYSVSFDKTTFRLLRGESNLFYTLAKWENNKLHVELPENIDKQSPTMTLIYDENGQLLWAQRDVPWLMKMIQPDWLKSNGFHEIEADVNDTSLLLSGDHSIQQQLQEVREDDDDAEMTHSVAVNVYPATSRMPKLTIVVVDTIPVELKSSYMVWSWFIYVLSANLLLVIPLLWVAAWWSLRPIEALAKEVRELEEHNRELLNPATTRELTSLVRNLNRLLKSERERYDKYRTTLTDLTHSLKTPLXXLQXXLRSLRSEKMSVSDAEPVMLEQISRISQQIGYYLHRASMRGGTLLSRELHPVAPLLDNLTSALNKVYQRKGVNISLDISPEISFVGEQNDFVEVMGNVLDNACKYCLEFVEISARQTDEHLYIVVEDDGPGIPLSKREVIFDRGQRVDTLRPGQGVGLAVAREITEQYEGKIVAGESMLGGARMEVIFGRQHSAPKDE

Variants of: B1
Test: enrichment ratio after two sorts for PhoP signalling (ratio (wild type AVST 3.29)); higher = more functional
Conditions: with PhoP (E. coli)

Variant	enrichment ratio
YVCR	≤ 0.25
QKNV	≤ 0.25
QGCT	≤ 0.25
LEQC	≤ 0.25
ALEP	≤ 0.25
DVCW	≤ 0.25
DLIF	≤ 0.25
NFWT	≤ 0.25
ANVS	7.14
MALC	7.69
FWDQ	≤ 0.25
TQGS	10.5
YRGS	0.346
TMFP	≤ 0.25
GKIF	≤ 0.25
APVL	≤ 0.25
NGYC	≤ 0.25
FMFR	≤ 0.25
RVYM	≤ 0.25
IIRW	≤ 0.25
RLHG	≤ 0.25
YKAG	≤ 0.25
AFRC	≤ 0.25
SMMH	15.6
IIMS	≤ 0.25

Variant	enrichment ratio
KYNQ	≤ 0.25
DRRY	≤ 0.25
YVPD	≤ 0.25
KLQT	≤ 0.25
VDHM	≤ 0.25
HVFP	≤ 0.25
YSIG	≤ 0.25
RIGH	≤ 0.25
HYYG	≤ 0.25
MWSD	≤ 0.25
KNSG	≤ 0.25
VNLD	≤ 0.25
RAAN	≤ 0.25
TDLI	16.1
FMWP	≤ 0.25
CSGA	≤ 0.25
RCDG	≤ 0.25
YNLC	1.02
LEPF	≤ 0.25
PFCR	≤ 0.25
PDWT	≤ 0.25
NEVG	≤ 0.25
SRYK	≤ 0.25
LMNK	≤ 0.25
GSFM	≤ 0.25

Variant	enrichment ratio
PDTV	≤ 0.25
IAFF	≤ 0.25
DPYA	≤ 0.25
CFSC	≤ 0.25
VRQC	≤ 0.25
YDTD	≤ 0.25
WMSD	≤ 0.25
PRWH	≤ 0.25
SCYQ	≤ 0.25
FQTD	≤ 0.25
VANG	≤ 0.25
IEFS	≤ 0.25
VWCD	≤ 0.25
RDAW	≤ 0.25
KSCE	≤ 0.25
QQRN	≤ 0.25
GYVQ	≤ 0.25
RASG	≤ 0.25
PKRM	≤ 0.25
YMSC	0.355
YQFC	≤ 0.25
LIFP	≤ 0.25
TMIG	≤ 0.25
RECS	≤ 0.25
KCCV	≤ 0.25

Variant	enrichment ratio
MMSY	2.46
PCWR	≤ 0.25
VWHF	≤ 0.25
WHPE	≤ 0.25
LYQR	≤ 0.25
MTGM	2.05
AKCY	5.64
APTD	≤ 0.25
TEHP	≤ 0.25
LTLA	≤ 0.25
FFPM	≤ 0.25
MASV	5.95
TMAQ	9.17
IIAN	≤ 0.25
VYTY	≤ 0.25
YDSR	≤ 0.25
YLVW	≤ 0.25
FTAH	≤ 0.25
LAAR	0.313
IWAW	≤ 0.25
ESKA	≤ 0.25
FAHH	≤ 0.25
WPTA	14.3
ENAQ	≤ 0.25
SEWW	≤ 0.25

Variant	enrichment ratio
GRTI	≤ 0.25
YTCG	≤ 0.25
TFQL	7.2
HETT	≤ 0.25
PVGC	≤ 0.25
VQHN	≤ 0.25
VWCN	≤ 0.25
NQCI	≤ 0.25
AFPN	≤ 0.25
VIGC	≤ 0.25
DRYS	≤ 0.25
VSAV	7.42
GQHF	≤ 0.25
KEDV	≤ 0.25
RADI	≤ 0.25
RFCY	≤ 0.25
LTFL	≤ 0.25
GRRN	≤ 0.25
FLCT	≤ 0.25
DSPW	≤ 0.25
FIGS	≤ 0.25
FCDG	≤ 0.25
NLDH	≤ 0.25
SDAF	≤ 0.25
SCTT	11.4

Variant	enrichment ratio
EKTW	≤ 0.25
YWLM	≤ 0.25
SGHI	≤ 0.25
RHVS	≤ 0.25
NNCY	≤ 0.25
SISV	11.6
VDNP	≤ 0.25
SHDQ	≤ 0.25
TWNK	≤ 0.25
PEDP	≤ 0.25
LMVM	≤ 0.25
RNGY	≤ 0.25
YYNM	≤ 0.25
KSPA	≤ 0.25
MPRQ	≤ 0.25
RIKS	≤ 0.25
PKML	≤ 0.25
SYFI	≤ 0.25
MNDT	≤ 0.25
QHTW	≤ 0.25
IWRA	≤ 0.25
MDNR	≤ 0.25
LYSA	≤ 0.25
AFAM	≤ 0.25
DFIN	≤ 0.25

Variant	enrichment ratio
ADNP	≤ 0.25
QLDN	≤ 0.25
PPVE	≤ 0.25
TRQP	0.618
KYIL	≤ 0.25
PNKT	≤ 0.25
YWNR	≤ 0.25
YHMY	≤ 0.25
VLTC	1.4
LWNH	≤ 0.25
GQCE	21.9
SWQA	≤ 0.25
HFGD	≤ 0.25
FDTD	≤ 0.25
EDCV	≤ 0.25
MKVT	≤ 0.25
GDGP	≤ 0.25
ADQW	≤ 0.25
KMPD	≤ 0.25
TREV	≤ 0.25
VWIW	≤ 0.25
VGQD	≤ 0.25
NGNF	≤ 0.25
INNM	≤ 0.25
YFEH	≤ 0.25

Variant	enrichment ratio
IAFQ	≤ 0.25
FQDI	≤ 0.25
SNMK	≤ 0.25
RAVM	≤ 0.25
KINW	≤ 0.25
FYTK	≤ 0.25
IEWY	≤ 0.25
PQNP	≤ 0.25
WPMI	≤ 0.25
YCTF	0.969
QNGH	≤ 0.25
DDTD	≤ 0.25
PHNH	≤ 0.25
ETQT	≤ 0.25
ELLD	≤ 0.25
QIVC	≤ 0.25
IYHA	≤ 0.25
HQLP	≤ 0.25
DVSC	≤ 0.25
TVLK	≤ 0.25

Source: a collection of fitness landscapes (doi:10.1126/science.1257360)
